Experimental data from the supplement of paper PMC12217912.
The other results are listed elsewhere or left out. The full chains were built here from the parent and the listed change. Values near 0.05 are background.

B1: TEV protease; numbered along this chain (parent)
chain: MGESLFKGPRDYNPISSSICHLTNESDGHTTSLYGIGFGPFIITNKHLFRRNNGTLVVQSLHGVFKVKDTTTLQQHLVDGRDMIIIRMPKDFPPFPQKLKFREPQREERICLVTTNFQTKSMSSMVSDTSCTFPSGDGIFWKHWIQTKDGQCGSPLVSTRDGFIVGIHSASNFTNTNNYFTSVPKNFMELLTNQEAQQWVSGWRLNADSVLWGGHKVFMVKPEEPFQPVKEATQL

Variants of: B1
Assay: raw area under fraction-flipped curve 0-4 h after induction (AUC4h, not background-subtracted), DNA-recorder readout of cleavage of the substrate (dimensionless); higher = more cleavage of the substrate by the protease variant
Conditions: temperature: 34 °C; time window: 0-4 h after rhamnose induction
Description: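 In vivo DNA recorder in E. coli TOP10(DE3) ΔrhaA at 34 °C. Each TEVp single-site mutant (parent TEVp 0) is paired with a single-site variant of the 7-mer TEVs (canonical ENLYFQ|S). The substrate sits between flexible linkers in a Bxb1-sfGFP-TEVs-SsrA fusion, so cleavage stabilises Bxb1 and speeds flipping of a recombination array, read by NGS. The value is the raw area under the fraction-flipped curve over 0-4 h after rhamnose induction (AUC4h), with ≥20 reads per time point. It is not background-subtracted; inactive controls average about 0.047.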
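Note: Bxb1 expression induced with 0.2% (w/v) L-rhamnose at OD600 near 0.5, cultures sampled hourly, flipped fraction per protease–substrate barcode pair counted by paired-end Illumina sequencing.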

| Variant | area with substrate EALYFQS | area with substrate ECLYFQS | area with substrate EDLYFQS | area with substrate EGLYFQS | area with substrate EHLYFQS | area with substrate ELLYFQS | area with substrate EMLYFQS | area with substrate EPLYFQS | area with substrate EQLYFQS | area with substrate ERLYFQS | area with substrate ESLYFQS | area with substrate EVLYFQS | area with substrate EYLYFQS | area with substrate EELYFQS | area with substrate EILYFQS | area with substrate EKLYFQS | area with substrate ETLYFQS | area with substrate EWLYFQS | area with substrate EFLYFQS |
| --- | --- | --- | --- | --- | --- | --- | --- | --- | --- | --- | --- | --- | --- | --- | --- | --- | --- | --- | --- |
| MGESLFKGPRDYNPISSSICHLTNESDGHTTSLYGIGFGPFIITNKHLFRRNNGTLVVQSLHGVFKVKDTTTLQQHLVDGRDMIIIRMPKDFPPFPQKLKFREPQREERICLVTTNFQTKSMFSMVSDTSCTFPSGDGIFWKHWIQTKDGQCGSPLVSTRDGFIVGIHSASNFTNTNNYFTSVPKNFMELLTNQEAQQWVSGWRLNADSVLWGGHKVFMVKPEEPFQPVKEATQL [S123F] | 0.131 | 0.0612 | 0.146 | 0.105 | 0.117 | 0.0945 | 0.109 | 0.112 | 0.109 | 0.0937 | 0.0948 | 0.101 | 0.117 | – | – | – | – | – | – |
| MGESLFKGPRDYNPISSSICHLTNESDGHTTSLYGIGFGPFIITNKHLFRRNNGTLVVQSLHGVFKVKDTTTLQQHLVDGRDMIIIRMPKDFPPFPQKLKFREPQREERICLVTTNFQTMSMSSMVSDTSCTFPSGDGIFWKHWIQTKDGQCGSPLVSTRDGFIVGIHSASNFTNTNNYFTSVPKNFMELLTNQEAQQWVSGWRLNADSVLWGGHKVFMVKPEEPFQPVKEATQL [K120M] | 0.0928 | – | 0.106 | 0.0811 | 0.104 | – | 0.113 | – | 0.108 | 0.0822 | 0.108 | 0.0657 | 0.0888 | 0.134 | 0.0911 | 0.109 | 0.0958 | 0.0812 | – |
| MGESLFKGPRDYNPISSSICHLTNESDGHTTSLYGIGFGPFIITNKHLFRRNNGTLVVQSLHGVFKVKDTTTLQQHLVDGRDMIIIRMPKDFPPFPQKLKFREPQREERICLVTTNFQTRSMSSMVSDTSCTFPSGDGIFWKHWIQTKDGQCGSPLVSTRDGFIVGIHSASNFTNTNNYFTSVPKNFMELLTNQEAQQWVSGWRLNADSVLWGGHKVFMVKPEEPFQPVKEATQL [K120R] | 0.132 | 0.122 | 0.154 | – | 0.112 | 0.0815 | – | 0.132 | 0.117 | 0.136 | 0.102 | 0.0889 | – | 0.139 | 0.1 | – | 0.0855 | 0.0922 | 0.12 |
| MGESLFKGPRDYNPISSSICHLTNESDGHTTSLYGIGFGPFIITNKHLFRRNNGTLVVQSLHGVFKVKDTTTLQQHLVDGRDMIIIRMPKDFPPFPQKLKFREPQREERICLVTTNFQTKSMSSMVVDTSCTFPSGDGIFWKHWIQTKDGQCGSPLVSTRDGFIVGIHSASNFTNTNNYFTSVPKNFMELLTNQEAQQWVSGWRLNADSVLWGGHKVFMVKPEEPFQPVKEATQL [S127V] | 0.118 | 0.0728 | 0.0855 | 0.0874 | 0.06 | 0.109 | – | 0.121 | 0.119 | 0.13 | 0.113 | 0.13 | – | 0.141 | 0.103 | 0.138 | 0.11 | – | – |
| MGESLFKGPRDYNPISSSICHLTNESDGHTTSLYGIGFGPFIITNKHLFRRNNGTLVVQSLHGVFKVKDTTTLQQHLVDGRDMIIIRMPKDFPPFPQKLKFREPQREERICLVTTNFQTKSMSSMVFDTSCTFPSGDGIFWKHWIQTKDGQCGSPLVSTRDGFIVGIHSASNFTNTNNYFTSVPKNFMELLTNQEAQQWVSGWRLNADSVLWGGHKVFMVKPEEPFQPVKEATQL [S127F] | 0.156 | 0.0946 | 0.0892 | – | – | 0.111 | 0.119 | 0.128 | 0.129 | 0.114 | 0.104 | 0.16 | 0.0999 | 0.128 | – | 0.118 | 0.139 | – | 0.131 |
| MGESLFKGPRDYNPISSSICHLTNESDGHTTSLYGIGFGPFIITNKHLFRRNNGTLVVQSLHGVFKVKDTTTLQQHLVDGRDMIIIRMPKDFPPFPQKLKFREPQREERICLVTTNFQTKSMSSMVSDTLCTFPSGDGIFWKHWIQTKDGQCGSPLVSTRDGFIVGIHSASNFTNTNNYFTSVPKNFMELLTNQEAQQWVSGWRLNADSVLWGGHKVFMVKPEEPFQPVKEATQL [S130L] | 0.0816 | 0.0786 | 0.0846 | 0.0444 | – | 0.075 | 0.0793 | 0.0848 | – | 0.0667 | 0.0805 | 0.0786 | 0.0916 | 0.102 | – | – | – | – | 0.0725 |
| MGESLFKGPRDYNPISSSICHLTNESDGHTTSLYGIGFGPFIITNKHLFRRNNGTLVVQSLHGVFKVKDTTTLQQHLVDGRDMIIIRMPKDFPPFPQKLKFREPQREERICLVTTNFQTKSMSSMVSDYSCTFPSGDGIFWKHWIQTKDGQCGSPLVSTRDGFIVGIHSASNFTNTNNYFTSVPKNFMELLTNQEAQQWVSGWRLNADSVLWGGHKVFMVKPEEPFQPVKEATQL [T129Y] | 0.0818 | 0.0916 | 0.102 | 0.0933 | – | 0.0954 | 0.102 | 0.0936 | – | – | – | 0.103 | – | – | 0.0683 | 0.111 | 0.0974 | 0.0791 | – |
| MGESLFKGPRDYNPISSSICHLTNESDGHTTSLYGIGFGPFIITNKHLFRRNNGTLVVQSLHGVFKVKDTTTLQQHLVDGRDMIIIRMPKDFPPFPQKLKFREPQREERICLVTTNFQTKSMSSMVSDSSCTFPSGDGIFWKHWIQTKDGQCGSPLVSTRDGFIVGIHSASNFTNTNNYFTSVPKNFMELLTNQEAQQWVSGWRLNADSVLWGGHKVFMVKPEEPFQPVKEATQL [T129S] | 0.098 | 0.107 | – | – | 0.102 | 0.0956 | 0.133 | 0.116 | 0.0996 | 0.119 | 0.124 | 0.0805 | – | 0.12 | 0.0853 | 0.123 | 0.103 | 0.0583 | 0.0984 |
